Results published in PubChem BioAssay AID504332 (National Center for Advancing Translational Sciences (NCATS), 2011).
Several values for one entry are separate records, joined by “and”; a condition that tells them apart may be missing. Equal values may be shown once. Among all 350,000 compounds or so, about 31,000 (8.9%) were called active. Inconclusive results, whose numbers are uncertain, are shown with a selection of clear calls. The call rests on the fitted dose curve; in most records, active means well fitted inhibition curve with a large enough effect; inconclusive means small, poorly fitted or top-dose-only effect; inactive means no such curve, though single readings can be large or run the other way. A potency beside an inconclusive call is a rough fit, not a confirmed value.
Further: nearly all actives have a fitted effect of over 75% in size.
On the % scale 0 is the no-effect control and ±100 the full control effect; potency means the concentration at half of the fitted maximal effect; tags describe the fitted curve by direction and shape.

Each compound was assayed against Histone-lysine N-methyltransferase EHMT2 (Homo sapiens) (UniProt Q96KQ7) (assay: qHTS Assay for Inhibitors of Histone Lysine Methyltransferase G9a). Details: G9a H3K9 monomethylation, AlphaScreen, 2 h; activity, negative = inhibition: at 59 µM (top of the series) unless noted.
Chain of UniProt Q96KQ7 (Q96KQ7 whole entry, looked up): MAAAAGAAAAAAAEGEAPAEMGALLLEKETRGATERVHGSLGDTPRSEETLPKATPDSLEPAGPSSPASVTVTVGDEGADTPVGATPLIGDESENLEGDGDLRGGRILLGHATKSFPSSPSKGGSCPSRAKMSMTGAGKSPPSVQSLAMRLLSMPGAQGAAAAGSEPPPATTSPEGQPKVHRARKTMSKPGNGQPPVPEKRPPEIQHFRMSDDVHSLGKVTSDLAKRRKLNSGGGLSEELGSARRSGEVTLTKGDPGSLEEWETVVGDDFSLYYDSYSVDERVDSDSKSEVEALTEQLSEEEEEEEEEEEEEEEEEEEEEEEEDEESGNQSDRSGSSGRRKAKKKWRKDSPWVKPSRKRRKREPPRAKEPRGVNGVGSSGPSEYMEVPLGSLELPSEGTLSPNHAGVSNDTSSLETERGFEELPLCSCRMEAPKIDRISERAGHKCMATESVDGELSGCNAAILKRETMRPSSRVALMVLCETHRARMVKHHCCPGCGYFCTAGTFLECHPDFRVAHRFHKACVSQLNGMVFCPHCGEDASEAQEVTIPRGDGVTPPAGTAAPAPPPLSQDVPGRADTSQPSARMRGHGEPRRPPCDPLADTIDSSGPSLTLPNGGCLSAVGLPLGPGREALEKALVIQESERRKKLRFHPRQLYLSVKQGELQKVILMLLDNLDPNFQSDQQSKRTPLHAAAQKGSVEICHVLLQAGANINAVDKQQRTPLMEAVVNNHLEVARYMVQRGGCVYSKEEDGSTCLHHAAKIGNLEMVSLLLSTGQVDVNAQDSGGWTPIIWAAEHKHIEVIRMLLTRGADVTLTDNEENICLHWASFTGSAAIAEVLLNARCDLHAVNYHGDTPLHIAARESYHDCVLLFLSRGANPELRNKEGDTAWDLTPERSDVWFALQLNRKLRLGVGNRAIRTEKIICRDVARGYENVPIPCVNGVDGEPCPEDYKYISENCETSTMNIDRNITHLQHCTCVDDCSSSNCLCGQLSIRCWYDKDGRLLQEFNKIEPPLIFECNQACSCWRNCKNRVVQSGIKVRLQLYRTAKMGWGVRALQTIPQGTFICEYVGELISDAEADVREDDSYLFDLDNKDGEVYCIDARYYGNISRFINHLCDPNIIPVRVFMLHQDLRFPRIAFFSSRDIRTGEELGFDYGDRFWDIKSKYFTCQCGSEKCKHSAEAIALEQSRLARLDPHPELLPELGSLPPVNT
Procedure, shortened: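 Compounds were preincubated with 20 nM G9a for 15 min, after which biotinylated H3K9 peptide (500 nM) and SAM (20 uM) started a 2 h room-temperature reaction. Monomethylated product was quantified by antibody-based AlphaScreen chemiluminescence.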
`CC(C)CN1CC[C@@]2(CCCN(C(=O)c3cc(C(F)(F)F)cc(C(F)(F)F)c3)C2)C1` was tested, and the activity, negative = inhibition was inactive: 9.85% [at 12.7 µM]. `CCN1CCN(c2ccc(NC(=O)c3ccc4c(c3)OCCO4)cc2C)CC1` was tested, and the Potency was active: 7.94 µM. In the case of `CC(=O)Nc1nonc1NC(=O)CSC1=NCCS1`, the Potency is reported as active: 56.2 µM. For `CS(=O)(=O)N(CC(=O)NC1CCCCC1)Cc1ccc(F)cc1`, the Potency was “inactive”. With `O=C(CC(Nc1ccccc1Cl)C(=O)O)c1ccccc1` (stereo not drawn) the Potency was inconclusive: 22.4 µM [inhibitor, single point]. `COCCn1c(SCC(=O)NCC2CCCO2)nc2c(c1=O)SCC2` (stereo not drawn) was tested, and the Potency was “inactive”. With `COc1ccccc1CN1C(=O)[C@@H]2C(CCC(N)=O)NC3(C(=O)Nc4c3ccc(Cl)c4C)[C@@H]2C1=O` (stereo partly drawn) the Potency was inconclusive: 79.4 µM [inhibitor, partial curve, poor fit]. `CSc1ccc(CNC(=O)CN2C(=O)C3CCCCN3c3ccc(C(=O)N4CCCC4)cc32)cc1` (stereo not drawn) was tested, and the Potency was “inactive”. For `COC(=O)c1ccc(COC(=O)c2nn(C)c(=O)c3ccccc23)cc1`, the Potency was “inactive”. `COc1cc(NC(=S)NN2CCN(C)CC2)cc(OC)c1` was tested, and the Potency was inconclusive: 50.1 µM [inhibitor, partial curve]. In the case of `O=C1c2cccc3cccc(c23)C(=O)N1c1ccc2ncccc2c1`, the Potency is reported as active: 25.1 µM. `Cc1[nH]c2ccccc2c1CN1CCN(c2ccccn2)CC1` was tested, and the Potency was inconclusive: 35.5 µM [inhibitor, single point]. With `O=C(CS(=O)(=O)c1ccccc1)N(CCCN1CCOCC1)c1nc2c(F)cccc2s1` the Potency was inconclusive: 79.4 µM [inhibitor, partial curve, poor fit]. In the case of `c1ccc(CCN2CN=C(Nc3nc4ccccc4s3)NC2)cc1`, the Potency is reported as inconclusive: 39.8 µM [inhibitor, single point]. `S=c1[nH]nc(CSc2nc3ccccc3s2)n1C1CCCCC1` was tested, and the Potency was active: 10 µM. With `CN(C)CCCN1C(=O)c2cc3ccccc3cc2C1=O` the Potency was “inactive”. For `O=S(=O)(NCc1nc2cccnc2n1Cc1ccc(F)cc1)c1ccc(Cl)s1`, the Potency was “inactive”. In the case of `Cc1ccc(COC(=O)c2ccc3c(c2)C(=O)N(CCCN2CCOCC2)C3=O)cc1`, the Potency is reported as inconclusive: 70.8 µM [inhibitor, single point]. `Cc1cccc(OCC(=O)Nc2ccc3oc(-c4ccccc4F)nc3c2)c1` was tested, and the Potency was “inactive”. With `COC(=O)c1cc2sc(C)cc2n1CC(=O)Nc1cccc(SC)c1` the Potency was “inactive”. For `CN(C)/C=N/C(=S)Nc1ccccc1Cl`, the Potency was inconclusive: 39.8 µM [inhibitor, single point]. `O=[N+]([O-])c1nn(-c2ccc3c(c2)OCCO3)n(O)c1=Nc1ccc(Cl)cc1` was tested, and the Potency was inconclusive: 56.2 µM [inhibitor, single point]. In the case of `Cc1nc(C)c(CCNC(=O)c2cccc(Cl)c2)s1`, the Potency is reported as active: 79.4 µM. `COc1ccc(-c2csc(Nc3cc(C)ccn3)n2)cc1C` was tested, and the Potency was inconclusive: 44.7 µM [inhibitor, partial curve, poor fit]. In the case of `COc1ccccc1CNC(=O)COC(=O)C12CC3CC(CC(O)(C3)C1)C2`, the Potency is reported as inconclusive: 11.2 µM [inhibitor, single point]. `COc1cc(/C=C/C(=O)OCC(=O)N2CCCC2)ccc1OCC#N` was tested, and the Potency was inconclusive: 6.31 µM [inhibitor, full curve]. In the case of `COC(=O)c1cc(C)sc1NC(=S)N1CCN(CCc2ccccc2)CC1`, the activity, negative = inhibition is reported as inconclusive: -92.6% [inhibitor]. With `Cc1nnc(SCC(=O)N2c3ccccc3CC2C)s1` (stereo not drawn) the Potency was inconclusive: 79.4 µM [inhibitor, partial curve, poor fit]. `COc1cc(/C=C2\CCCc3c2nc2ccccc2c3C(=O)O)cc(Cl)c1O` was tested, and the Potency was inconclusive: 28.2 µM [inhibitor, single point]. With `O=C(C[n+]1cc(-c2ccc(Cl)cc2)n2c1CCCCC2)c1ccccc1` the activity, negative = inhibition was inactive: 10.5% [at 12.7 µM]. In the case of `CC(C)C(NS(=O)(=O)c1cccs1)C(=O)NCc1ccc2c(c1)OCO2` (stereo not drawn), the Potency is reported as “inactive”. For `O=C(O)/C=C\C(=O)NCc1ccccc1`, the Potency was inconclusive: 89.1 µM [inhibitor, single point]. With `CCN1CCN(C(=O)c2ccc(CSc3ccc(C)cc3)cc2)CC1` the Potency was inconclusive: 50.1 µM [inhibitor, partial curve, poor fit]. For `CCN(CC)C(=O)Cn1cc(S(=O)(=O)CC(=O)NCc2ccc3c(c2)OCO3)c2ccccc21`, the Potency was inconclusive: 79.4 µM [inhibitor, single point]. In the case of `CN(C)/C=N/c1cc(=O)n(C)c(=O)n1Cc1ccccc1`, the Potency is reported as “inactive”. In the case of `O=c1c(-c2cccs2)nc2cnc(Oc3cccc(Cl)c3)nc2n1C1CC1`, the activity, negative = inhibition is reported as inactive: -9.08% [at 12.7 µM]. In the case of `COc1ccc(C(C)(C)C)cc1NC(=O)c1[nH]c(C)c(C(C)=O)c1C`, the Potency is reported as inconclusive: 89.1 µM [inhibitor, single point]. `CC(C(=O)N(C)Cc1ccccc1)N1CCN(C/C=C/c2ccccc2)CC1` (stereo not drawn) was tested, and the Potency was active: 20 µM. `NC(=O)c1ccsc1NC(=O)COC(=O)Cc1cccc2ccccc12` was tested, and the Potency was inconclusive: 70.8 µM [inhibitor, partial curve, poor fit]. In the case of `COC(=O)C1=C(C(=O)OC)[C@@H]2N(C)c3ccccc3[C@@]23C[C@@H](C(=O)OC)N(C(=O)c2cccs2)C3=N1`, the Potency is reported as “inactive”. `COc1ccc(-c2cc(C(=O)N3CCN(c4ncccn4)CC3)c3ccccc3n2)cc1OC` was tested, and the Potency was inconclusive: 0.1 µM [inhibitor, full curve, poor fit]. With `COc1ccc(C(=O)C2CCCN(C(=O)c3cc(C)nc(C)n3)C2)cc1OC` (stereo not drawn) the Potency was inconclusive: 0.501 µM [inhibitor, partial curve, poor fit]. `N#Cc1nc(-c2cccc3ccccc23)oc1N` was tested, and the activity, negative = inhibition was inactive: 2.47% [at 2.33 µM]. For `CN1CCN(c2ccc(S(=O)(=O)N3CCCCC3)cc2NC(=O)/C=C/c2ccc(OC(F)F)cc2)CC1`, the Potency was active: 44.7 µM. With `Cc1nn(CC(=O)NCCCN2CCCC2)c(=O)c2nn(-c3ccccc3)c(C)c12` the Potency was inconclusive: 28.2 µM [inhibitor, full curve]. In the case of `CCC(CC)C(=O)Nc1cccc(C(=O)N2CCOCC2)c1`, the Potency is reported as inconclusive: 2 µM [inhibitor, partial curve, poor fit]. `CN(C)c1nc(N2CCOCC2)nc(N(c2ccccc2)c2ccccc2)n1` was tested, and the Potency was inconclusive: 3.55 µM [inhibitor, full curve]. With `COc1ccc2c(c1)C(SCC(=O)NCCc1ccc(Cl)cc1)CC(C)(C)O2` (stereo not drawn) the Potency was inconclusive: 89.1 µM [inhibitor, single point]. With `CC(C)(C)C(=O)CSc1nnc(Nc2ccccc2)s1` the Potency was inconclusive: 70.8 µM [inhibitor, partial curve, poor fit]. In the case of `CC(OC(=O)c1oc2ccccc2c1CSC1CCCCC1)C(=O)NC(N)=O` (stereo not drawn), the activity, negative = inhibition is reported as inactive: 9.22% [at 12.7 µM]. For `CCN(CC)CCNC(C(=O)Nc1ccc([N+](=O)[O-])cc1Br)c1ccccc1` (stereo not drawn), the Potency was inconclusive: 20 µM [inhibitor, partial curve]. For `CCCN1CCC(N2CCCC(C(=O)O)C2)CC1` (stereo not drawn), the Potency was inconclusive: 35.5 µM [inhibitor, single point]. For `COc1ccc(Cn2ccc3nc(C)c(C(=O)N4CCN(c5ccccc5F)CC4)cc3c2=O)cc1`, the Potency was “inactive”. With `CN1/C(=C\C(=S)Nc2ccccc2)C(C)(C)c2ccccc21` the Potency was active: 44.7 µM. With `CCOc1cc(/C=N/O)cc(Br)c1OCC` the Potency was “inactive”. With `CCCc1nc2c(=O)n(C)c(=O)[nH]c2n1CCC` the Potency was inconclusive: 22.4 µM [inhibitor, single point]. For `COc1cccc(-c2cc(C(F)(F)F)n3nc(C)c(-c4ccccc4)c3n2)c1`, the Potency was “inactive”. `Oc1ccc(-c2csc(Nc3ccccn3)n2)cc1` was tested, and the Potency was active: 70.8 µM. For `COc1ccc(NC(=O)COC(=O)CN2C(=O)C3CCCCC3C2=O)cc1OC` (stereo not drawn), the Potency was “inactive”. In the case of `Cc1ccccc1C(=O)NC1(C(F)(F)F)N=C(c2ccccc2)N(Cc2ccccc2)C1=O` (stereo not drawn), the Potency is reported as inconclusive: 0.794 µM [inhibitor, full curve, poor fit]. With `CC1(O)N(CCC(=O)Nc2cccc(F)c2)C(=O)OC12CCCCC2` (stereo not drawn) the Potency was “inactive”. `Cc1onc(-c2ccccc2)c1C(=O)NC(=S)Nc1sc2c(c1C#N)CCC(C)C2` (stereo not drawn) was tested, and the Potency was active: 3.55 µM. `c1ccc(CCCN2CCN(c3ccccc3)CC2)cc1` was tested, and the Potency was inconclusive: 89.1 µM [inhibitor, single point]. For `CCOC(=O)C1CCCN(C(=O)c2cc3ccc(OC)cc3[nH]2)C1` (stereo not drawn), the Potency was “inactive”. With `CN1CCC(=NNC(=O)C(=O)NC2CCCCC2)CC1` the Potency was “inactive”. `CCC(c1nnc(SCC(=O)Nc2c(F)cccc2F)n1Cc1ccccc1)N(C)C` (stereo not drawn) was tested, and the Potency was inconclusive: 89.1 µM [inhibitor, single point]. In the case of `COc1cc2nc(N3CCN(C(=O)OCc4ccccc4)[C@H](C(=O)NC(C)(C)C)C3)nc(N)c2cc1OC`, the Potency is reported as active: 7.08 µM. For `COc1ccc(C(=O)OCC[N+]2(C)CCOCC2)cc1`, the Potency was inconclusive: 89.1 µM [inhibitor, partial curve, poor fit]. With `CCSc1nc2ccccc2[nH]1` the activity, negative = inhibition was inactive: 16.8% [at 12.7 µM] and inactive: 7.34% [at 12.7 µM]. With `CCC12CN3CC(C)(CN(C1)C3c1c[nH]c3ccc(OC)cc13)C2=O` (stereo not drawn) the Potency was inconclusive: 10 µM [inhibitor, partial curve, poor fit]. For `CNC(=S)N(CCc1c(C)[nH]c2ccccc12)Cc1ccco1`, the Potency was active: 50.1 µM. With `COc1ccc(NC(=O)CCl)cn1` the Potency was active: 28.2 µM. With `O=C(CNC(=O)c1ccc(F)cc1)N/N=C/c1cn[nH]c1-c1ccccc1` the Potency was inconclusive: 0.794 µM [inhibitor, partial curve, poor fit].
